# Measurements taken from a collection of fitness landscapes (doi:10.1016/j.celrep.2020.107928).
# The full ranking holds about 81,000 sequences; the median of “one-hybrid fitness for binding parS DNA” is about -0.17, and the highest 2% start at about 0.51. The list shows a part of the results.
# B1: Caulobacter ParB omega fusion; a variant is named by its letters at X, in order, B8GW30 (parent)
# chain: MESVVVGEPGMSEGRRGLGRGLSALLGEVDAAPAQAPGEQLGGSREAPIEILQRNPDQPRRTFREEDLEDLSNSIREKGVLQPILVRPSPDTAGEYQIVAGERAWRAAQRAGLKTVPIMVRELDDLAVLEIGIIENVQRADLNVLEEALSYKVLMEKFERTQENIAQTIGKSXSHVANXMRLLXLPDEVQSYLVSGELTAXHARAIAAAADPVALAKQIIEGGLSVRETEALARKAPNLSAGKSKGGRPPRVKDTDTQALESDLSSVLGLDVSIDHRGSTGTLTITYATLEQLDDLCNRLTRGI
# Variants of: B1
# Test: one-hybrid fitness for binding parS DNA (scaled: cognate 1, non-cognate 0); higher = stronger binding
# Settings: with parS DNA site
# In short: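 Selection: bacterial one-hybrid in E. coli USO, HIS3 reporter with the site 19 bp from the promoter, 48 hours at 37°C on M9-minus-histidine plus 0.1 mM IPTG and 5 mM 3-AT. Libraries were Caulobacter ParB with four randomised specificity codons, sequenced on Illumina before and after selection. Fitness is the rescaled log change in variant-to-wild-type read ratio, anchored to the cognate and non-cognate sites.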
row,Variant,one-hybrid fitness for binding parS DNA
1,QYQA,≤ 0.2
2,VQNS,≤ 0.2
3,SDHA,≤ 0.2
4,LLMV,≤ 0.2
5,YQNS,≤ 0.2
6,AHRS,≤ 0.2
7,TARV,≤ 0.2
8,RRYG,0.769
9,NKHS,≤ 0.2
10,HVQC,≤ 0.2
11,TCVL,≤ 0.2
12,STCL,≤ 0.2
13,YNLA,≤ 0.2
14,VITT,≤ 0.2
15,RLYQ,≤ 0.2
16,TKAW,≤ 0.2
17,TKSN,≤ 0.2
18,RGVH,≤ 0.2
19,WHRS,≤ 0.2
20,LETF,≤ 0.2
21,GMGG,≤ 0.2
22,IDLG,≤ 0.2
23,LNEC,0.237
24,RAQI,≤ 0.2
25,PFIT,≤ 0.2
26,RYDT,0.79

row,Variant,one-hybrid fitness for binding parS DNA
1,QGLC,≤ 0.2
2,LPRM,≤ 0.2
3,DWDR,≤ 0.2
4,DLIM,≤ 0.2
5,GLKY,≤ 0.2
6,NTKG,≤ 0.2
7,NALI,≤ 0.2
8,NKAT,≤ 0.2
9,KNTM,≤ 0.2
10,GLEG,≤ 0.2
11,GFPN,≤ 0.2
12,PLLH,≤ 0.2
13,RTYR,≤ 0.2
14,AHML,≤ 0.2
15,ILTI,≤ 0.2
16,YHPA,≤ 0.2
17,ILRT,≤ 0.2
18,NMDL,≤ 0.2
19,ANMT,≤ 0.2
20,RVLN,0.423
21,ARWS,≤ 0.2
22,SMEP,≤ 0.2
23,PYTS,≤ 0.2
24,TERA,≤ 0.2
25,QQSN,≤ 0.2
26,EMVL,≤ 0.2

row,Variant,one-hybrid fitness for binding parS DNA
1,LHTQ,≤ 0.2
2,MITT,≤ 0.2
3,LYTC,≤ 0.2
4,CTNG,≤ 0.2
5,HWEI,≤ 0.2
6,TSSC,≤ 0.2
7,IGHC,≤ 0.2
8,TNMV,≤ 0.2
9,GVYR,≤ 0.2
10,VSPT,≤ 0.2
11,HDDG,≤ 0.2
12,SIWA,≤ 0.2
13,TESL,≤ 0.2
14,QASC,≤ 0.2
15,KCSL,≤ 0.2
16,SRTH,≤ 0.2
17,GCKP,≤ 0.2
18,YVPR,≤ 0.2
19,SNPM,≤ 0.2
20,LRTA,≤ 0.2
21,SAFT,≤ 0.2
22,PLQS,≤ 0.2
23,SWGR,≤ 0.2
24,MRGG,≤ 0.2
